# According to publication PMC12136788:
# This is one part of the list.
# T1: UNK ZnF1-3 (human, UniProt Q9C0B0 31-174)
# T1 sequence: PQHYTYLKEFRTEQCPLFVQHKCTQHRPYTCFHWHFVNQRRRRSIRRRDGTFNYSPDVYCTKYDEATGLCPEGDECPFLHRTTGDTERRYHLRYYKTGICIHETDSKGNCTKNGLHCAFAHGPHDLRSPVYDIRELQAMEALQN
# B1: 32428398_32428518_72_5pUTR_ENSMUSG00000027668_ENSMUST00000091257|mouse|control|control (ssRNA)
# RNA: GGGAGUUCUACAGUCCGACGAUCAGGUCACCCCGGACGUCGCCACCCGCCAGCGGACACUCACUCCGUCCCUGCUCCCCACUGUCACCCAGCAACCACAGCUCCGCCACAGCCCCCUGGCUGUCUCAUCCUCCCGAAAGAGGGCAACAGAGGAUUGAGCAUCA
# B2: chr2:47387409:47387410:-_ENSG00000143933_ENST00000272298|hu_mus|motif|central (ssRNA)
# RNA: GGGAGUUCUACAGUCCGACGAUCCAACUUGGAAUGGAUUUGAGGCAAGUUGUGCCAUGAGCAGGUUUUCUUUAAGUGGCGGAACAAAGUUUAAAAAGCAAGUAACAAUAAAAGAAAAUGUUCCUGGUACAAUACCAGCAGUACCAACAGAGGAUUGAGCAUCA
# B3: chrX:140365796:140365797:-_ENSMUSG00000031285_ENSMUST00000033642|mus_mus|mus_mus_mus_hu_False|1_28 (ssRNA)
# RNA: GGGAGUUCUACAGUCCGACGAUCCUUCUCAUUACUCAGUGCCUGCAAGGUUCUGGUUCGGUAGAAGCUACAGUGGGCGCUGUGAGUGGGGCUAGGCAACCCAUUCAUCCGUGACCCUCGCAUGUUCCUGGAUGUCUUGUCUCGCAACAGAGGAUUGAGCAUCA
# B4: chr8:104447970:104447971:+_ENSG00000164934_ENST00000297579|hu_hu|hu_hu_hu_mus_False|18_48 (ssRNA)
# RNA: GGGAGUUCUACAGUCCGACGAUCAUACACUUCCCUGCUUCGGCUCUUGUCCACAGGAAAGAUUCUAAUAGACUUAUCAAAGCUGGCAGACACAAACUCCUUCCCAGUGGGAGAGUAAUCCACAUCAAGUACUGCAGACACGUGCAACAGAGGAUUGAGCAUCA
# B5: chrX:71549400:71549401:+_ENSMUSG00000019087_ENSMUST00000019231|mus_hu|mus_mus_mus_hu_False|18_18 (ssRNA)
# RNA: GGGAGUUCUACAGUCCGACGAUCGCAGUAGGAAGAGGGAAGCUCUUCAGUCCAGUGCGCUGCAGGGUGGGAAAGCAACAACACGGACACCGUCCCACCCUCAACCCCCCCACUGGCAUGUCACACAACAAUCUGGGUCAAAGACAACAGAGGAUUGAGCAUCA
# B6: chr19:45826695:45826696:-_ENSMUSG00000025220_ENSMUST00000026243|mus_hu|motif|central (ssRNA)
# RNA: GGGAGUUCUACAGUCCGACGAUCACCAAGUAUAACCACAUCCUUUGGAAAUCCUUCCAUUUUUGCAAUUUCAAAACAUCCGGACUUGCUGUAAAAUUCCAGAAUUCUUUUAUCAUCUGGUCUCACUUCACAGAAAGCUCCCCGCAACAGAGGAUUGAGCAUCA
# B7: chr2:78760142:78760143:+_ENSMUSG00000027011_ENSMUST00000028398|mus_mus|motif|central (ssRNA)
# RNA: GGGAGUUCUACAGUCCGACGAUCGGUCCACUGUCUGGCUAUCCUGUCAUGUUCUGCUCUGUUGGUCAAAUACUGAGUGGCGGUGCUUCCGACCAGAGGAUCCGCAGGGUUGCAAUCUGUCAAAAGGGAACAAAUAGAGAGCAACAACAGAGGAUUGAGCAUCA
# B8: chr2:216981417:216981418:+_ENSG00000079246_ENST00000392132|hu_hu|hu_hu_hu_mus_True|1_68 (ssRNA)
# RNA: GGGAGUUCUACAGUCCGACGAUCCUGAUACUGGUCCUUGCCAGCAAGGGCAUUAUCAGUGCCAUCUGUACCAAACAGGACUAACGCAAUCUCAUCUUUGCUCUCCGAAAAUACCUGUCGUUGGACAAACAUAGUCAUCACCUUCAACAGAGGAUUGAGCAUCA
# B9: chr11:51804959:51804960:-_ENSMUSG00000020390_ENSMUST00000020657|perfect_dup|motif|central (ssRNA)
# RNA: GGGAGUUCUACAGUCCGACGAUCAUUUUGGAUAAAAACCUAACAGUUGGUGGUUUAUUUGGAUAUUCUUCAGAAAAUUCGGUUACGGGUUUAAAAGUACCAUCUUCAAAAGGUGUCCCUUCUGGUCCAAAUAUAACUGCAUUCCAACAGAGGAUUGAGCAUCA
# B10: chr7:65705844:65705845:+_ENSG00000169902_ENST00000304842|hu_hu|FALSE|FALSE (ssRNA)
# RNA: GGGAGUUCUACAGUCCGACGAUCAAAAGGAUCUUUAUUACAUAAAUAAGGGGCUGGCUCCCCAUGCUUAACGAUAAUUUCUAGUAAGAAGGCUUGCAUGGCAGAAUCCAGCACUUCAUCAGUAACACCAGCCUCAUCCAGGCGCAACAGAGGAUUGAGCAUCA
# B11: chr1:39494564:39494565:+_ENSG00000168653_ENST00000372967|hu_hu|hu_hu_hu_mus_True|8_78 (ssRNA)
# RNA: GGGAGUUCUACAGUCCGACGAUCAUGCAUUCGCCUCAUCGUUUUGUACCGAAGCAAACACUCUACGAAGUCAUCGAACUCUAUCUUGCACUCCUUUUUCGCCCGGGUCCCACCGAUCCCGUGUGCACAUUCUAUCCACUCUUUCAACAGAGGAUUGAGCAUCA
# B12: 123332865_123334832_1155_CDS_ENSG00000106299_ENST00000223023|human|control|control (ssRNA)
# RNA: GGGAGUUCUACAGUCCGACGAUCUGGAGGGGGAGGAGGAGGAGGUGGCCCUCCCCUUGAUGGUGGUGGAGGUGGUGGUGCUUGCCUCCGCAGUUCAUUUUUAACAGCUUCAACACCUCCUGUUUUUUCAAUAAAGUCAUAUAUCAACAGAGGAUUGAGCAUCA
# B13: chr2:104521139:104521140:-_ENSMUSG00000027175_ENSMUST00000111118|mus_mus|motif|central (ssRNA)
# RNA: GGGAGUUCUACAGUCCGACGAUCGAUGCGGGAGAUCAACCCCGGGGCCUCGUGCAGGCUAGGCGAUCACUGGCCACUGUACGGCAUACAAGUUGACAAAACAAGCUUUUAAAAAUCAAGUUCUAUCCAUUGGGUAUGGUGGCACAACAGAGGAUUGAGCAUCA
# B14: chr1:180251892:180251893:+_ENSMUSG00000026500_ENSMUST00000027781|mus_hu|FALSE|FALSE (ssRNA)
# RNA: GGGAGUUCUACAGUCCGACGAUCUGAACCAUACAAUAUUGAAUGCCGGGCGCAGGGAGUAUUUUCAACAUCUAAAAAUCCUAGGAGCUUAAGGGACUUCCAAUAUGAUAAAUGUAACGACGUACAAGAUGCCUUCCUCUCCUCCAACAGAGGAUUGAGCAUCA
# Molecular target: T1, UNK ZnF1-3
# Assay: nsRBNS (natural sequence RNA bind-n-seq); RBNS binding buffer (assumed for nsRBNS): 25 mM Tris pH 7.5, 150 mM KCl, 3 mM MgCl2, 0.01% Triton X-100, 500 ug/ml BSA, 20 U/ml SUPERase-In, 4 C; UNK is unkempt and MSI1 is Musashi-1; names of the RNAs are library labels; protein concentration not given here; high values mean tight binding
row,Binder,binding signal [enrichment R]
1,B1,1.48
2,B2,1.61
3,B3,0.504
4,B4,1.04
5,B5,1.35
6,B6,0.696
7,B7,1.65
8,B8,0.71
9,B9,0.829
10,B10,0.786
11,B11,0.657
12,B12,1.02
13,B13,0.967
14,B14,1.9
